Measured values from the supplement of paper PMC3334620.
Whole data set: some 33,000 sequences, median “E-score (-0.5 to 0.5)” near -0.041, cut for the highest 2% near 0.37. The list shows a part of the results.

target: T1, Ecm22 (UniProt Q05958); experiment: PBM E-score (8-mer binding enrichment) (E-score (-0.5 to 0.5)); higher = stronger / more preferred TF binding; most listed sequences are background and not binding sites; conditions: protein concentration: 200 nM; construct: GST-full length
T1 sequence: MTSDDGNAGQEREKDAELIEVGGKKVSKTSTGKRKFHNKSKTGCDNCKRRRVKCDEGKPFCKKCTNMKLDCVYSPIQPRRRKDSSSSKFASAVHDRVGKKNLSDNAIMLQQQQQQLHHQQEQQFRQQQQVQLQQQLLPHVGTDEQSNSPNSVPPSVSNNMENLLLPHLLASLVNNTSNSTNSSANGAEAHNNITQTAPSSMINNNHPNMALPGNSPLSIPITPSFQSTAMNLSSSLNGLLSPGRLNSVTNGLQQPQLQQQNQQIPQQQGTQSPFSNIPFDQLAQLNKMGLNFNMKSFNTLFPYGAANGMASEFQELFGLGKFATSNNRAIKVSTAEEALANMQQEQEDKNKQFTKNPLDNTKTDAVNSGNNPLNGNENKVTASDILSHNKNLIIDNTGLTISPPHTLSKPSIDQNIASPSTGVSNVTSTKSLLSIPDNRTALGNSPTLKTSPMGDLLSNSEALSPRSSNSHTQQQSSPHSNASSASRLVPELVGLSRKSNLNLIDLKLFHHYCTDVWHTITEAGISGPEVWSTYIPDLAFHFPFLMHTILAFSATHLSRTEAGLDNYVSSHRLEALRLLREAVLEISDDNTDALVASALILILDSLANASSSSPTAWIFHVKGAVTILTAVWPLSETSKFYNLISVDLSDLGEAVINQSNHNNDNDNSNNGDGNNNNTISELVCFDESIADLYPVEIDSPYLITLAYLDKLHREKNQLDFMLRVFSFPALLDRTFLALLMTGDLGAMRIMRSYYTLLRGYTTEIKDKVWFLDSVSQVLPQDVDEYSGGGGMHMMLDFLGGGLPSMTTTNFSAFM
Procedure, shortened: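 Full-length yeast transcription factors or their DNA-binding domains, GST-tagged and expressed with PURExpress, were applied at about 100-200 nM to universal all-10-mer Agilent arrays. These arrays had been made double-stranded by primer extension on fresh or once-stripped slides. Detection used fluorescent anti-GST, normalisation used masliner, and E-scores for ungapped eight-base words pooled with reverse complements came from the Universal PBM Analysis Suite.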

Row | Sequence | PBM E-score
1 | AATGCAGT | -0.0129
2 | ACTGGATG | -0.18
3 | AGCCAGGG | -0.109
4 | AGCCTCTC | -0.117
5 | CCACACCG | -0.0803
6 | CAGCAGCG | 0.00537
7 | CCTGCGAC | -0.111
8 | ATGAGGGA | -0.0667
9 | AGATGTTG | -0.164
10 | AGTTTAAA | 0.0639
11 | GCAGAAGC | 0.0949
12 | GACGCTCA | -0.0816
13 | AGGTCGGG | -0.108
14 | AGCTAGCA | -0.127
15 | ACAGTTAT | -0.183
16 | GACCCCAA | -0.193
17 | CGCCCTAA | -0.27
18 | ATAATCTA | 0.0551
19 | GGCGTCCC | -0.0688
20 | ATAAGACC | -0.164
21 | CAGCCAGC | -0.276
22 | CGCCGGAA | -0.0229
23 | AACCTTGA | -0.248
24 | ACCGGCCT | -0.221
25 | CTGTCCCC | -0.109

Row | Sequence | PBM E-score
26 | GACACCAA | 0.0388
27 | CAAGGGAA | -0.196
28 | GACTGTCA | -0.0879
29 | CTTTAATC | 0.0468
30 | CAGAAGTC | -0.251
31 | TATAGCAA | -0.0178
32 | CACGAAAG | -0.0739
33 | AGTGAACC | 0.131
34 | ACCGCGCC | -0.0104
35 | GTCTTAAA | -0.0381
36 | CATACGTC | 0.0749
37 | TGGCGGAA | -0.226
38 | TCCCCCAA | -0.309
39 | GGATTTAA | 0.0122
40 | ACCGGAAA | 0.0999
41 | CTGTGATC | -0.0572
42 | AAATCTAT | 0.094
43 | GCCCATAC | -0.0281
44 | GATTATAC | 0.165
45 | ATCCCCGC | -0.00157
46 | AAGCCAGG | -0.232
47 | TGCTGCAA | 0.119
48 | CCGACCAG | -0.0384
49 | CTACTCGC | 0.142
50 | ATAGGTGA | 0.0133

Row | Sequence | PBM E-score
51 | CAGAGCAA | 0.166
52 | CCGGAACC | -0.0325
53 | CATGACTC | -0.213
54 | CTGGTGCA | -0.199
55 | AGCTGCCG | -0.134
56 | ACCCCAGA | -0.302
57 | ACCCGCCA | 0.102
58 | AGACCCAG | -0.272
59 | GTCTACAA | 0.0235
60 | CTCGGACC | 0.299
61 | GAATAATC | 0.201
62 | CAGATTAA | -0.035
63 | AACCGTAA | 0.235
64 | GTCTGAAA | -0.124
65 | CTAAGCGC | 0.0189
66 | CAGCCTGC | -0.217
67 | AAGGACGG | -0.123
68 | ACAAGCAA | 0.0804
69 | CGATGTAC | 0.206
70 | CCGTTCCG | 0.441
71 | ATGCACAC | 0.00417
72 | AATTCGTG | -0.036
73 | CATGATAG | -0.14
74 | CCTTGCTC | -0.127
75 | CAAAGCGA | 0.129

Row | Sequence | PBM E-score
76 | CGAACTTC | 0.183
77 | AATACGGA | 0.249
78 | GGCGCCTA | -0.143
79 | CTTTGTTC | 0.115
80 | TAGAGCTA | -0.269
81 | AACGAGAG | 0.433
82 | AAGGGTGT | -0.307
83 | AGATTAAT | 0.105
84 | CCCACGGA | -0.0435
85 | ATGGTACG | 0.443
86 | GGTCTCAC | -0.223
87 | ACTCGACA | 0.035
88 | CTTTATAA | -0.128
89 | ACTGGTAT | 0.0582
90 | ACCGGGTC | 0.0691
91 | ACAATTGC | -0.123
92 | CGGCGTAG | -0.00106
93 | ACATTTAC | -0.0083
94 | CTACGATC | 0.325
95 | CCTAGTGA | -0.208
96 | ATTCAGAC | -0.00563
97 | GGGCATAC | 0.00962
98 | CGTTTTTA | 0.235
99 | CTAAAGGC | -0.0656
100 | CTCTGTCA | -0.138

Row | Sequence | PBM E-score
101 | GGTCTGCA | -0.171
102 | ACGCTCAT | -0.0709
103 | CGCTACGC | 0.138
104 | AAAGGGAC | -0.13
105 | ATTTCGGG | -0.12
106 | AAACTAGG | -0.12
107 | CTCAAAAA | -0.163
108 | TAAGAAAA | 0.0248
109 | CGTTCCAA | 0.365
110 | GGTCCCCA | -0.236
111 | GTTGAACA | -0.117
112 | AGCCCTCA | -0.122
113 | CCACAAAC | -0.0295
114 | GCCCGTAC | 0.396
115 | GTTTCATA | 0.116
116 | AACTTCGG | 0.0486
117 | CGCAACGA | 0.448
118 | ATTTCAGA | -0.142
119 | TTCGGCAA | 0.169
120 | CAGATGCG | -0.0929
121 | CCTAGAGA | -0.098
122 | CCTACGAG | 0.339
123 | CTAGTGTA | -0.0315
124 | AAAAACCC | -0.182
125 | TCGGCGCA | -0.113

Row | Sequence | PBM E-score
126 | GCAGCTGC | -0.117
127 | GATGCTCC | -0.0472
128 | CTATCAAA | -0.0898
129 | CCCCGAGC | -0.202
130 | CTCCGGGC | -0.0634
131 | TCAAGCCA | -0.0735
132 | AGATGCTG | -0.245
133 | GCGTGCCC | -0.0439
134 | GAAAGGTA | -0.0314
135 | CCGATTAG | 0.175
136 | AACATAAC | -0.00214
137 | ATCCTGGG | -0.168
138 | CCATTTAG | 0.0519
139 | CACCTGGA | -0.181
140 | TCTTGTAA | 0.0397
141 | CTCGGTTA | 0.383
142 | ACGGAAGG | -0.0464
143 | CGAAAGTA | 0.0633
144 | CTTACTTC | 0.0693
145 | GGTCTGAC | -0.241
146 | CTGTCCAA | -0.0899
147 | CCACCCTA | -0.135
148 | GGGCGCCA | -0.251
149 | CCATTTCG | 0.0396
150 | GACTCGGA | 0.119

Row | Sequence | PBM E-score
151 | AAAAAAGC | -0.187
152 | CCGATGGC | -0.0332
153 | CACTATCC | -0.0493
154 | GATCGGCA | -0.0142
155 | TCGACAGA | 0.0367
156 | CAATTCTG | -0.298
157 | TGCTAAAA | -0.147
158 | CGCGACCC | 0.07
159 | GCTGAATA | -0.0929
160 | AATGGTCA | -0.122
161 | TCAGTTCA | -0.0433
162 | ATTGTTTG | -0.129
163 | AACCCTGT | -0.0941
164 | GTGTGAAC | 0.106
165 | ATGGGCAA | 0.0376
166 | TGGGCACA | -0.3
167 | AAGGTAAC | 0.186
168 | ACTTGCAA | 0.072
169 | GATTGCTA | -0.0307
170 | AGCCCTTG | -0.255
171 | TAGATCGA | -0.035
172 | GGGAGAAC | -0.137
173 | ATTTAGGG | -0.00056
174 | AGGATACT | -0.266
175 | ACGCATTA | -0.111

Row | Sequence | PBM E-score
176 | ACCAGCAT | -0.118
177 | AGAATAGA | -0.11
178 | ACGGAAGT | 0.198
179 | CGGATGTC | 0.173
180 | ACATCAGG | -0.138
181 | CCGTCACC | -0.0526
182 | AGAGGGCT | -0.339
183 | ATGCCATA | 0.0201
184 | AACGTTCT | 0.197
185 | CATAGTCC | -0.173
186 | GATCTGCA | -0.0972
187 | TAATTTAA | 0.112
188 | AGAACCAT | -0.0792
189 | ACGCAAGC | 0.0609
190 | TCTTCTAA | -0.0793
191 | ATGATCAC | 0.133
192 | GGTCATTA | -0.0468
193 | AACATATT | 0.0935
194 | AAACCTAC | -0.0318
195 | ACCCGCAG | -0.0811
196 | CACCGTGA | -0.146
197 | ACGCCGCT | 0.0724
198 | AAGCCGCC | -0.191
199 | ACTAAGGG | -0.0514
200 | AGAGTACC | -0.21

Row | Sequence | PBM E-score
201 | CTTCTCTA | -0.353
202 | AATACCTC | 0.0681
203 | AGCAGTTA | -0.0915
204 | GGATGAAA | -0.0649
205 | CATGGAAC | -0.0916
206 | CTTCTAGC | -0.0841
207 | CCACTGCC | -0.0201
208 | CTCAAGAA | -0.182
209 | ACAAAAAT | 0.0378
210 | AACACCAT | 0.00405
211 | ATCTTAGC | -0.191
212 | AGAAGTGA | -0.314
213 | GCATTAAA | -0.00384
214 | AACGCAAA | 0.101
215 | ATAACGCG | 0.135
216 | CGGCGTAC | 0.253
217 | ACTACTCG | 0.235
218 | AGATGGCC | -0.148
219 | GATAGCGC | 0.0119
